From the supplement of paper PMC10369915
Some of the results follow. Cut-off read from the data, not from the text of the source: active = 3.2 or more and inactive = the rest. Only a few entries rise above the background.

Target: SHP2 C-SH2 domain E139D
Test: enrichment score (SH2-bound / input frequency) (ratio); bacterial display of known human phosphotyrosine sites (pTyr-Var adds point mutants) read by sequencing; higher = stronger binding; tyrosines were phosphorylated by kinases first
Details: peptide library: pTyr-Var
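Note: displayed peptides selected on beads carrying the immobilized SH2 domain, with library peptides lacking any tyrosine serving as negative controls.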

Enrichment score, inactive:
IHADICRWFNI [MARS1_Y344_Y344C] 1.4
CEETFYTMKMN [MASP2_Y401_V405M] 1.06
CDIPRYIVSQL [MAST2_Y461] 0.894
GPTLSYGRDGR [MATR3_Y158] 0.556
ETSHNYHKFDS [MATR3_Y243] 0.669
ETWHNYHKFDS [MATR3_Y243_S240W] 0.993
QLQTTYPSSDN [MAX_Y115_N114T] 0.681
DKATEYIQYMR [MAX_Y70] 0.917
DKATEYIQFVR [MAX_Y70_M74V_YF] 0.653
TEYIQYMRRKN [MAX_Y73] 0.0383
TEYSQYMRRKN [MAX_Y73_I71S] 0.361
TEYIQYVRRKN [MAX_Y73_M74V] 0.203
GSPAPYRRRKR [MBD1_Y403_P401A] 0.252
SLGKGYSDGGC [MC4R_Y35] 0.719
FLGKGYSDGGC [MC4R_Y35_S30F] 0.612
SLGKGYFDGGC [MC4R_Y35_S36Y_YF] 0.723
YDGGCYEQLFV [MC4R_Y41_S36Y] 0.959
VKGGAYYPVTV [MCCC2_Y145] 0.757
VKGGAYNPVTV [MCCC2_Y145_Y146N] 0.804

Target: SHP2 C-SH2 domain wild-type
Test: as above
Details: peptide library: pTyr-Var

Enrichment score, inactive:
IHADICRWFNI [MARS1_Y344_Y344C] 1.87
CEETFYTMKMN [MASP2_Y401_V405M] 1.5
CDIPRYIVSQL [MAST2_Y461] 0.892
GPTLSYGRDGR [MATR3_Y158] 0.704
ETSHNYHKFDS [MATR3_Y243] 0.658
ETWHNYHKFDS [MATR3_Y243_S240W] 0.587
QLQTTYPSSDN [MAX_Y115_N114T] 0.531
DKATEYIQYMR [MAX_Y70] 0.829
DKATEYIQFVR [MAX_Y70_M74V_YF] 0.61
TEYIQYMRRKN [MAX_Y73] 0.0913
TEYSQYMRRKN [MAX_Y73_I71S] 0.418
TEYIQYVRRKN [MAX_Y73_M74V] 0.223
GSPAPYRRRKR [MBD1_Y403_P401A] 0.191
SLGKGYSDGGC [MC4R_Y35] 0.743
FLGKGYSDGGC [MC4R_Y35_S30F] 0.753
SLGKGYFDGGC [MC4R_Y35_S36Y_YF] 0.657
YDGGCYEQLFV [MC4R_Y41_S36Y] 1.01
VKGGAYYPVTV [MCCC2_Y145] 0.629
VKGGAYNPVTV [MCCC2_Y145_Y146N] 0.706

Target: SHP2 N-SH2 domain L43F
Test: as above
Details: peptide library: pTyr-Var

Enrichment score, inactive:
IHADICRWFNI [MARS1_Y344_Y344C] 1.19
CEETFYTMKMN [MASP2_Y401_V405M] 1.11
CDIPRYIVSQL [MAST2_Y461] 0.848
GPTLSYGRDGR [MATR3_Y158] 0.682
ETSHNYHKFDS [MATR3_Y243] 0.767
ETWHNYHKFDS [MATR3_Y243_S240W] 0.796
QLQTTYPSSDN [MAX_Y115_N114T] 0.528
DKATEYIQYMR [MAX_Y70] 0.752
DKATEYIQFVR [MAX_Y70_M74V_YF] 0.64
TEYIQYMRRKN [MAX_Y73] 0.0591
TEYSQYMRRKN [MAX_Y73_I71S] 0.297
TEYIQYVRRKN [MAX_Y73_M74V] 0.268
GSPAPYRRRKR [MBD1_Y403_P401A] 0.235
SLGKGYSDGGC [MC4R_Y35] 0.603
FLGKGYSDGGC [MC4R_Y35_S30F] 0.767
SLGKGYFDGGC [MC4R_Y35_S36Y_YF] 0.686
YDGGCYEQLFV [MC4R_Y41_S36Y] 1.26
VKGGAYYPVTV [MCCC2_Y145] 0.565
VKGGAYNPVTV [MCCC2_Y145_Y146N] 0.786

Target: SHP2 N-SH2 domain T42A
Test: as above
Details: peptide library: pTyr-Var

Enrichment score, inactive:
IHADICRWFNI [MARS1_Y344_Y344C] 1.31
CEETFYTMKMN [MASP2_Y401_V405M] 1.02
CDIPRYIVSQL [MAST2_Y461] 0.769
GPTLSYGRDGR [MATR3_Y158] 0.55
ETSHNYHKFDS [MATR3_Y243] 0.727
ETWHNYHKFDS [MATR3_Y243_S240W] 0.58
QLQTTYPSSDN [MAX_Y115_N114T] 0.802
DKATEYIQYMR [MAX_Y70] 0.691
DKATEYIQFVR [MAX_Y70_M74V_YF] 0.631
TEYIQYMRRKN [MAX_Y73] 0.116
TEYSQYMRRKN [MAX_Y73_I71S] 0.292
TEYIQYVRRKN [MAX_Y73_M74V] 0.254
GSPAPYRRRKR [MBD1_Y403_P401A] 0.326
SLGKGYSDGGC [MC4R_Y35] 0.508
FLGKGYSDGGC [MC4R_Y35_S30F] 0.536
SLGKGYFDGGC [MC4R_Y35_S36Y_YF] 0.663
YDGGCYEQLFV [MC4R_Y41_S36Y] 0.989
VKGGAYYPVTV [MCCC2_Y145] 0.807
VKGGAYNPVTV [MCCC2_Y145_Y146N] 0.676

Target: SHP2 N-SH2 domain T52S
Test: as above
Details: peptide library: pTyr-Var

Enrichment score, inactive:
IHADICRWFNI [MARS1_Y344_Y344C] 1.37
CEETFYTMKMN [MASP2_Y401_V405M] 0.945
CDIPRYIVSQL [MAST2_Y461] 0.877
GPTLSYGRDGR [MATR3_Y158] 0.599
ETSHNYHKFDS [MATR3_Y243] 0.758
ETWHNYHKFDS [MATR3_Y243_S240W] 0.932
QLQTTYPSSDN [MAX_Y115_N114T] 0.864
DKATEYIQYMR [MAX_Y70] 0.715
DKATEYIQFVR [MAX_Y70_M74V_YF] 0.663
TEYIQYMRRKN [MAX_Y73] 0.44
TEYSQYMRRKN [MAX_Y73_I71S] 0.575
TEYIQYVRRKN [MAX_Y73_M74V] 0.213
GSPAPYRRRKR [MBD1_Y403_P401A] 0.199
SLGKGYSDGGC [MC4R_Y35] 0.501
FLGKGYSDGGC [MC4R_Y35_S30F] 0.804
SLGKGYFDGGC [MC4R_Y35_S36Y_YF] 0.664
YDGGCYEQLFV [MC4R_Y41_S36Y] 0.827
VKGGAYYPVTV [MCCC2_Y145] 0.77
VKGGAYNPVTV [MCCC2_Y145_Y146N] 0.692

Target: SHP2 N-SH2 domain wild-type
Test: as above
Details: peptide library: pTyr-Var

Enrichment score, inactive:
IHADICRWFNI [MARS1_Y344_Y344C] 1.83
CEETFYTMKMN [MASP2_Y401_V405M] 1.66
CDIPRYIVSQL [MAST2_Y461] 1.18
GPTLSYGRDGR [MATR3_Y158] 0.734
ETSHNYHKFDS [MATR3_Y243] 0.709
ETWHNYHKFDS [MATR3_Y243_S240W] 0.688
QLQTTYPSSDN [MAX_Y115_N114T] 0.527
DKATEYIQYMR [MAX_Y70] 0.821
DKATEYIQFVR [MAX_Y70_M74V_YF] 0.601
TEYIQYMRRKN [MAX_Y73] 0.504
TEYSQYMRRKN [MAX_Y73_I71S] 0.201
TEYIQYVRRKN [MAX_Y73_M74V] 0.157
GSPAPYRRRKR [MBD1_Y403_P401A] 0.238
SLGKGYSDGGC [MC4R_Y35] 0.786
FLGKGYSDGGC [MC4R_Y35_S30F] 0.622
SLGKGYFDGGC [MC4R_Y35_S36Y_YF] 0.861
YDGGCYEQLFV [MC4R_Y41_S36Y] 1.41
VKGGAYYPVTV [MCCC2_Y145] 0.921
VKGGAYNPVTV [MCCC2_Y145_Y146N] 0.903
